# Reference: PubChem BioAssay AID624296 (National Center for Advancing Translational Sciences (NCATS), 2012)
# The whole screen tested about 350,000 compounds, of which about 9,900 (2.8%) were called active. The inconclusive results got no clear call from the source; some entries with a clear call stand among them for comparison. Calls come from the whole dose curve; as a rule, active = well fitted activation curve with a large enough effect; inconclusive = small, poorly fitted or top-dose-only effect; inactive = no such curve, though single readings can be large or run the other way. Potencies of inconclusive entries are left out as doubtful fits.
# Assay: A quantitative high throughput screen for small molecules that induce DNA re-replication in MCF 10a normal breast cells. Note: nearly all actives have a fitted effect of over 50% in size.
# Settings: MCF 10A DNA re-replication, Hoechst nuclear intensity, 48 h; series mostly up to 46.1 µM
# Potency is the fitted concentration of half-maximal effect; tags give direction and shape of the fitted curve.
row,Structure (SMILES),Potency
1,CCOC(=O)N1CCN(C(=O)c2cccc(NC3=NC4CS(=O)(=O)CC4S3)c2)CC1 (configuration not stated),"inconclusive [activator, single point]"
2,CO/N=C/NC(=O)c1ccc([N+](=O)[O-])c(CS(=O)(=O)c2ccc(Cl)cc2)c1,"inconclusive [activator, single point]"
3,COc1cccc(CC2(CO)CCCN(Cc3cc4ccccc4[nH]3)C2)c1 (configuration not stated),"inconclusive [activator, single point]"
4,O=C(CSc1nc(COc2ccccc2)nc2ccccc12)NC1CCCC1,"inconclusive [activator, single point]"
5,Cc1cccc(N2C(=O)/C(=C\c3ccc(OC(F)F)cc3)c3ccccc3C2=O)c1,"inconclusive [activator, single point]"
6,CCNc1c(NS(=O)(=O)c2ccc([N+](=O)[O-])cc2)c(=O)oc2ccccc12,"inconclusive [activator, single point]"
7,Cc1ccc(N2CN(Cc3cccnc3)CNC2=S)cc1,inactive
8,O=C(Oc1ccccc1/C=C\C(=O)c1cc2ccccc2o1)c1ccccc1,"inconclusive [activator, single point]"
9,CN(CC(=O)NC1CC(C)(C)NC(C)(C)C1)S(=O)(=O)c1ccc(Br)cc1,"inconclusive [activator, partial curve, poor fit]"
10,COc1ccc(/C=N/Nc2nc(-c3ccc(Cl)cc3)cc(C(F)(F)F)n2)c(OC)c1,inactive
11,COc1cc(-c2nnc(SCC(=O)c3cc(C)n(CC4CCCO4)c3C)o2)cc(OC)c1OC (configuration not stated),inactive
12,Cc1c(C(=O)Nc2ccc(OC(F)(F)F)cc2)sc2nc3n(c(=O)c12)CCC3,"inconclusive [activator, single point]"
13,Cc1ccc(-c2nc(SCC(=O)Nc3cc(S(=O)(=O)N4CCCCC4)ccc3Cl)n[nH]2)cc1,"inconclusive [activator, partial curve, poor fit]"
14,c1cc2c3c(cccc3c1)-c1cnccc1-2,inactive
15,CNC(=S)N/N=C/c1ccco1,inactive
16,CC(C)c1nc2ccc(Br)cn2c1NC1CCCC1,inactive
17,COc1ccc(N(C(=O)c2snc(C(N)=O)c2N)C(C(=O)NC2CCCC2)c2ccc3ncccc3c2)cc1 (configuration not stated),"inconclusive [activator, single point]"
18,O=C(NC(=O)c1c(F)cccc1F)Nc1cccc(Oc2ncc(Cl)cn2)c1,inactive
19,Cc1ccc(C(=O)OCCN(C)Cc2ccccc2)cc1,inactive
20,CCCCn1c(N)c(N(CC(C)C)C(=O)c2ccc(-n3c(C)ccc3C)cc2)c(=O)[nH]c1=O,"inconclusive [activator, single point]"
21,OCCCN1c2ccccc2Nc2nnc(-c3ccccc3)cc21,"inconclusive [activator, partial curve, poor fit]"
22,Cc1cccc(C)c1NC(=S)NC1CCCCC1,inactive
23,CN1CCN(CCOCCOc2ccc(Br)cc2Cl)CC1,"inconclusive [activator, partial curve, poor fit]"

row,Structure (SMILES),Potency
1,Cc1cccc(NCc2ccc(O)c3ncccc23)c1,"inconclusive [activator, single point]"
2,COc1ccc2[nH]c3c(NCCN(C(C)C)C(C)C)ncnc3c2c1,"inconclusive [activator, single point]"
3,CC(=O)/C(=N\Nc1ccc(Cl)cc1)Sc1nnc(-c2ccccc2)n1-c1ccccc1,"inconclusive [activator, partial curve, poor fit]"
4,CCC(C)(C)C1CCC2(CC1)NC(=O)N(CC(=O)N(C)CCOc1ccc(Cl)cc1)C2=O (configuration not stated),"inconclusive [activator, single point]"
5,COc1ccc(/C=C/C(=O)Nc2cccc(C(C)=O)c2)cc1,"inconclusive [activator, partial curve, poor fit]"
6,CNc1nc(-c2ccccc2)nc(-c2ccc(OC)cc2)c1C#N,inactive
7,COc1ccc(C(CNc2ncnc3sc(C)c(C)c23)N(C)C)cc1 (configuration not stated),"inconclusive [activator, partial curve, poor fit]"
8,Cc1c(NC(=O)OCCNC(=O)COc2ccc(Cl)cc2Cl)sc(=S)n1C,"inconclusive [activator, partial curve, poor fit]"
9,OC[C@@H](O)[C@H](O)C(/C=N/Nc1ccccc1)=N\Nc1ccccc1,"inconclusive [activator, single point]"
10,COc1ccccc1/C=C/CN1CCCCC1,"inconclusive [activator, single point]"
11,CC(C)(C)OC(=O)N[C@@H](C(=O)OC(C)(C)C)c1ccccc1,"inconclusive [activator, partial curve, poor fit]"
12,COC(=O)c1scc(C)c1NC(=O)c1ccc(Cl)cc1,inactive
13,Cc1sc(NC(=O)/C=C/c2ccc(C(C)C)cc2)c(C#N)c1C,"inconclusive [activator, full curve, poor fit]"
14,CSc1nc2ccc(NC(=O)c3cccs3)cc2s1,"inconclusive [activator, single point]"
15,CC(C)c1ccc(COC(=O)CN2C(=O)NC3(CCCCC3C)C2=O)cc1 (configuration not stated),"inconclusive [activator, single point]"
16,Cc1cc2c(cc1S(=O)(=O)Nc1ccc(OC(F)(F)F)cc1)OCC(=O)N2,inactive
17,O=C(CSc1nc2ccc(N3CCOCC3)cc2c(=O)n1CCc1ccccc1)NCC1CCCO1 (configuration not stated),active: 23.1 µM
18,OC1(c2ccc(OC(F)F)cc2)CSC(=Nc2cccnc2)N1C1CC1 (configuration not stated),"inconclusive [activator, single point]"
19,CCN(CC)S(=O)(=O)c1cc(NC(=O)c2ccccc2OCc2c(C)noc2C)ccc1C,inactive
20,COc1cc(Cl)c(CN2CCCC(CO)(Cc3ccccc3F)C2)cc1OC (configuration not stated),"inconclusive [activator, full curve, poor fit]"
21,O=C(CNC(=O)[C@@H]1Cc2ccccc2CN1)NC1CCCCC1,"inconclusive [activator, single point]"
22,c1ccc(Nc2nc(N3CCNCC3)nc(N3CCOCC3)n2)cc1,"inconclusive [activator, partial curve, poor fit]"
23,O=[N+]([O-])c1cc(Cc2ccccc2)cc(C=Nc2ccc(N3CCOCC3)cc2)c1O,"inconclusive [activator, partial curve]"

row,Structure (SMILES),Potency
1,O=C(NCCNC(=O)c1cc(OCC(F)(F)F)ccc1OCC(F)(F)F)Nc1ccccc1,"inconclusive [activator, partial curve, poor fit]"
2,Cc1noc(C)c1C(=O)Nc1ccc(Cl)cc1C(F)(F)F,inactive
3,O=C(CCN1C(=O)/C(=C\c2cccs2)SC1=S)Nc1nccs1,inactive
4,COc1ccc(OC)c(NC(=O)c2ccno2)c1,inactive
5,CC(NCC(O)COCc1ccc(Cl)cc1)c1ccccc1 (configuration not stated),"inconclusive [activator, partial curve, poor fit]"
6,Cc1cnc(NC(=O)c2cc3c(C)nn(Cc4ccccc4Cl)c3s2)s1,"inconclusive [activator, single point]"
7,COC(=O)[C@H]1C[C@@H]1[C@H](NC(=O)[C@H]1C[C@@H]1[C@H](NC(=O)OCc1ccccc1)c1ccccc1)c1ccccc1,"inconclusive [activator, partial curve, poor fit]"
8,Cc1ccc(C)c(NC(=O)CSc2n[nH]c(-c3ccccn3)n2)c1,"inconclusive [activator, single point]"
9,CCc1ccc2nc(N3CCN(C)CC3)c(C#N)cc2c1,"inconclusive [activator, single point]"
10,COc1ccc(C(=O)Nc2cc(Cl)ccc2OC(=O)c2ccc(OC)cc2)cc1,"inconclusive [activator, single point]"
11,O=C(CSc1nc2ccccc2[nH]1)Nc1cc(C(F)(F)F)ccc1N1CCOCC1,"inconclusive [activator, single point]"
12,CC(=O)Nc1ccc(NC(=O)CSc2nnnn2-c2ccc3c(c2)OCCO3)cc1,"inconclusive [activator, single point]"
13,CS(=O)(=O)c1sc2nc(-c3cccs3)cc(-c3ccccc3)c2c1N,active: 18.4 µM
14,COc1ccc(N(CC(=O)Nc2cc(C)on2)S(=O)(=O)c2ccc(Cl)cc2)cc1,inactive
15,Cc1nc(NC(C)C)c2cnn(CCc3ccccc3)c2n1,active: 20.6 µM
16,CCCN1CNC(=S)N(c2ccccc2OC)C1,inactive
17,CN1CCN(S(=O)(=O)c2ccc(N(C)Cc3ccc(C(F)(F)F)cc3)c([N+](=O)[O-])c2)CC1,"inconclusive [activator, single point]"
18,COc1cccc(NC(=O)/C=C/c2ccco2)c1,inactive
19,CC(C)N(Cc1ccccc1)C(=S)NCCN1CCOCC1,"inconclusive [activator, partial curve, poor fit]"
20,O=C(CCc1nc(-c2ccc(Cl)cc2)no1)OCc1ccc(Br)cc1,"inconclusive [activator, partial curve, poor fit]"
21,CCC(C)[C@H](NC(=O)OC(C)(C)C)C(=O)N/N=C/C1=Cc2ccccc2OC1 (some centres not stated),"inconclusive [activator, single point]"
